Whole data set: some 33,000 sequences, median “E-score (-0.5 to 0.5)” near -0.053, cut for the highest 2% near 0.37. Some of the results follow.
molecular target: Hap1 (UniProt P0CE41); assay: PBM E-score (8-mer binding enrichment) (E-score (-0.5 to 0.5)); higher = stronger / more preferred TF binding; most listed sequences are background and not binding sites; details: protein concentration: 200 nM; construct: GST-DNA-binding domain
Method in brief: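 Each ungapped eight-base word and its reverse complement, pooled, received an E-score from the Universal PBM Analysis Suite. Underlying scans, normalised with masliner, recorded fluorescent anti-GST bound to GST-tagged yeast transcription factors. These were applied at about 100-200 nM to universal all-10-mer Agilent arrays double-stranded by primer extension.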

Chain of UniProt P0CE41 (P0CE41 whole entry, the tested form may be a part): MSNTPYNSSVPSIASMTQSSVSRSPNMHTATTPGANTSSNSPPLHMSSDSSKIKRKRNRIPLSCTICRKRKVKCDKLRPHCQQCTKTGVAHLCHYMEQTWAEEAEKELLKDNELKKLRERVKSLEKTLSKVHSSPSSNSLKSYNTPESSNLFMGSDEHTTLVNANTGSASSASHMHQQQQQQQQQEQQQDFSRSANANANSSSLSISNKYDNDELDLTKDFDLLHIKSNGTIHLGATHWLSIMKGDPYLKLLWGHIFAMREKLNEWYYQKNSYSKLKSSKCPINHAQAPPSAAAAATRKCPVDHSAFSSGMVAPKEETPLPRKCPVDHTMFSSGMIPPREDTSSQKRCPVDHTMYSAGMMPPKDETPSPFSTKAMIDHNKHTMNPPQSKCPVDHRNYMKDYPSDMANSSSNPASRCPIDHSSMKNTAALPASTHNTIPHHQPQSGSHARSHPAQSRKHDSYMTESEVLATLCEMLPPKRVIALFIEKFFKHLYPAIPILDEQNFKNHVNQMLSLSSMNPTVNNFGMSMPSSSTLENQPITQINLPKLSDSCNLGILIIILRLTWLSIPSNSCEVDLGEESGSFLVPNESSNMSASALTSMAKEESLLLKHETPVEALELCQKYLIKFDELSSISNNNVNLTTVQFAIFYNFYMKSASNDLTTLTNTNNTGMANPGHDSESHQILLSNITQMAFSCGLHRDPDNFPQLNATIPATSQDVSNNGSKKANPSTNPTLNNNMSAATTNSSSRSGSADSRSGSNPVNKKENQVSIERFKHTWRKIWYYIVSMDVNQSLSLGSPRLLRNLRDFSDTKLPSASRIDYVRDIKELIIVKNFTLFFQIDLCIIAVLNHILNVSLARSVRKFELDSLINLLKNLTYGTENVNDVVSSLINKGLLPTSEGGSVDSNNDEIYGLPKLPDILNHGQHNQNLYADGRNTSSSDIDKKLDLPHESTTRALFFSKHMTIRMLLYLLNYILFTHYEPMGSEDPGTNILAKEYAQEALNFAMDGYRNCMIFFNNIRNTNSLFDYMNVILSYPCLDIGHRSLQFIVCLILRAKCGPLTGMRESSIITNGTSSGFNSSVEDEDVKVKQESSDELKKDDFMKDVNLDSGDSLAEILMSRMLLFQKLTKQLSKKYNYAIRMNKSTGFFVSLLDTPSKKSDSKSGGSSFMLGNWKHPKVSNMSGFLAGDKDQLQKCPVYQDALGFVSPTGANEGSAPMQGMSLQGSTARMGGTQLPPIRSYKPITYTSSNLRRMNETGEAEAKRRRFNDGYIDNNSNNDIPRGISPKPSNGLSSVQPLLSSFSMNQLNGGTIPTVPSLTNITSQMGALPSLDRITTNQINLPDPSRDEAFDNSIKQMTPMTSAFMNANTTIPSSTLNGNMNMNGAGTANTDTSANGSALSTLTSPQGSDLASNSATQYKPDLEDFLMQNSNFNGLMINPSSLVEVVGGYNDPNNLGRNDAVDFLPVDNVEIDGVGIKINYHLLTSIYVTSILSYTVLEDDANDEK

| Sequence | PBM E-score |
| --- | --- |
| ACGCATTA | -0.14 |
| AGGATACT | -0.191 |
| AGAATAGA | -0.0835 |
| ACCAGCAT | -0.199 |
| ACGGAAGT | 0.319 |
| CGGATGTC | 0.35 |
| CCGTCACC | 0.0705 |
| ACATCAGG | -0.132 |
| AGAGGGCT | -0.318 |
| AACGTTCT | -0.016 |
| ATGCCATA | -0.292 |
| CGAATTAG | -0.0666 |
| GCGGACTA | 0.307 |
| CACCTTCG | -0.00991 |
| GGGTATAC | 0.262 |
| TCGCTGAA | -0.0999 |
| ATAAGTGG | -0.0671 |
| AACGTGCG | 0.023 |
| CTACTTCA | -0.134 |
| CGCACCAC | -0.0674 |
| AGGCAACA | -0.2 |
| GGGCGGTA | 0.315 |
| AGGCGGAA | 0.0183 |
| TCGCACAA | -0.054 |
| ATACATTG | 0.0247 |

| Sequence | PBM E-score |
| --- | --- |
| ATGTAGGC | 0.00509 |
| CCTCTACG | -0.189 |
| GCAGATCA | -0.2 |
| ATTATAGG | -0.045 |
| AAACCAAC | -0.0722 |
| CAAGTGCA | -0.435 |
| AATTACAC | 0.0385 |
| ATCGTATA | 0.0642 |
| TAATCAAA | 0.197 |
| GCAATTAC | 0.173 |
| AAACCTAT | -0.0917 |
| CAATAAGG | -0.149 |
| ACTGACCA | -0.161 |
| ATGGCGGC | 0.195 |
| ACACCAAT | 0.0155 |
| ACCAGGAT | 0.0532 |
| CCTCCGGC | 0.399 |
| CTATATGA | -0.0844 |
| TCCTGACA | -0.299 |
| ACTGTACA | -0.321 |
| TAAAAAAA | -0.0743 |
| GGTTGAGA | 0.00778 |
| TATCTGGA | -0.108 |
| ACTTCTAC | -0.119 |
| CGCCGACA | 0.215 |

| Sequence | PBM E-score |
| --- | --- |
| CACGCCGC | 0.0522 |
| AGCGTGTC | -0.213 |
| ATTCCTAG | -0.183 |
| ACGGCTTG | -0.117 |
| CGGTGTGC | 0.165 |
| CAGCCAAC | -0.219 |
| CTATATAA | -0.207 |
| CAGAACTG | -0.013 |
| AATATTCT | -0.0515 |
| AGCGGTAT | 0.144 |
| CGGACCCA | 0.346 |
| AAGGCAGG | -0.174 |
| AACGTGAG | -0.193 |
| GTGCATCA | -0.21 |
| AGAGCGTC | -0.225 |
| GGCAGCTA | -0.00611 |
| AGGTCAAT | -0.198 |
| CCAACCCA | -0.291 |
| ATTCAGGC | -0.122 |
| CCACGGTC | -0.0373 |
| ACGACCAT | -0.254 |
| AAAGGCGA | -0.0146 |
| GGCGCTAC | 0.0372 |
| ACACGGTG | 0.072 |
| CGGATCGA | 0.247 |

| Sequence | PBM E-score |
| --- | --- |
| ATCTAGGA | -0.0897 |
| AATAAGGT | 0.109 |
| ATGATAAG | -0.054 |
| ACAAGCGT | -0.101 |
| ATCTTTAG | 0.0582 |
| TATACGCA | 0.0553 |
| CCACTCGG | 0.219 |
| AGTCGCGC | 0.101 |
| CCGATGAC | 0.292 |
| CGTCCTGC | -0.249 |
| CGATGACC | 0.228 |
| ACAGCGAT | 0.00087 |
| ACCAATTC | 0.0498 |
| CGGCTCCA | 0.232 |
| ATTCCGCC | 0.295 |
| CAAACAGA | -0.112 |
| CATGTTGC | -0.0889 |
| CCAGTGCG | 0.0478 |
| GCATTCCA | -0.00998 |
| ATGGTGAA | -0.0453 |
| AAAACTAA | -0.208 |
| CTGATGCA | -0.313 |
| ATGAATCC | 0.108 |
| GTTAAGTA | -0.074 |
| CTCATATA | -0.0576 |

| Sequence | PBM E-score |
| --- | --- |
| CGCATCCC | -0.00146 |
| AATATCGA | 0.0281 |
| CAGCCGAA | 0.178 |
| CACGGGAG | -0.222 |
| ACGGGCCT | 0.188 |
| CGCCGGTA | 0.345 |
| GATCCGGC | 0.375 |
| AAACTATT | -0.0483 |
| CGCGAAAC | 0.107 |
| AGCGCAGA | -0.0791 |
| CGTACGTA | -0.0805 |
| ACCGATAT | 0.43 |
| CGAAACCA | 0.0663 |
| CATCAATA | -0.0745 |
| AACATTAC | 0.0352 |
| CGAACCCG | 0.255 |
| CAATAGGA | -0.198 |
| ACAAACGC | 0.113 |
| ACGCCGAA | 0.313 |
| TAGTAATA | -0.19 |
| AGATGGGC | 0.0565 |
| ACTACCAT | -0.226 |
| ACTAGGGA | -0.234 |
| AAGCTTAT | -0.0384 |
| AACAACAC | -0.24 |

| Sequence | PBM E-score |
| --- | --- |
| AAGAGACT | -0.132 |
| CCATTCGG | 0.253 |
| CTCGGTAA | 0.273 |
| AGATATCT | -0.104 |
| ACCCGTAT | -0.0216 |
| GCGTCTAC | -0.0531 |
| AGATTCTA | -0.0893 |
| AATTAAAC | 0.104 |
| CAAAGTAC | -0.251 |
| CACGAATA | -0.219 |
| AGGCTTAG | -0.166 |
| GCAAGGAA | 0.0246 |
| CAGGTCGG | 0.128 |
| ACCACTTA | -0.00971 |
| GCAGGAGA | 0.033 |
| CTATCCGC | 0.257 |
| GACCCAGC | -0.262 |
| CTTATTGA | -0.115 |
| ATACTACG | -0.0503 |
| CAGCCATC | -0.087 |
| AGCGGGCG | 0.222 |
| GCCAGGGA | -0.285 |
| ATCACAAA | -0.11 |
| CACAGCCG | 0.186 |
| CCGTTAAA | 0.35 |

| Sequence | PBM E-score |
| --- | --- |
| AGTCCTTA | -0.245 |
| CTCAGAAC | -0.199 |
| AACATCGA | -0.0653 |
| ATTGCTAG | -0.213 |
| ACAGGCTC | -0.175 |
| GGAGCTCA | -0.0213 |
| CGGTTCAA | 0.188 |
| GGGGTAAC | 0.0191 |
| AGCGTGGA | -0.217 |
| CGACAGAA | 0.0432 |
| ACAAAGGG | -0.162 |
| CGGCTACG | 0.111 |
| GAGTCTAA | 0.0212 |
| CATCCGAG | 0.265 |
| CGTGTTAA | -0.311 |
| GGCACACA | 0.0401 |
| GCTTTCAA | -0.124 |
| CGTGCCAC | -0.101 |
| AGAAGTCA | -0.205 |
| ATACTGTC | -0.0704 |
| CTCCTGCA | -0.144 |
| AGGCGCGC | 0.0364 |
| AGAGAACG | -0.258 |
| ATGTTTAA | -0.182 |
| ATTTTGCG | -0.0734 |

| Sequence | PBM E-score |
| --- | --- |
| GCGCCCCC | -0.115 |
| CCGTCGAG | 0.0147 |
| AAATAATT | 0.156 |
| AAGGGTTA | -0.115 |
| GCTCTGTA | -0.234 |
| AGTAAAAA | -0.048 |
| AGTAGGGA | -0.0918 |
| ATCTCCTC | 0.0444 |
| CTACGCTC | 0.00814 |
| ACCACCGT | 0.0464 |
| AATGAACC | -0.0442 |
| AATATTCC | 0.231 |
| ACGGGGGG | -0.129 |
| AGCCTCAC | -0.289 |
| CCGAATGA | 0.268 |
| CGGCGCAC | 0.259 |
| ATGCGCAT | 0.023 |
| CGATGAGC | 0.0619 |
| AATAGTAC | -0.0423 |
| ATCGGGCG | 0.36 |
| CGTTTGAA | -0.061 |
| CGTACGAG | 0.0155 |
| GCGTGAAC | -0.0798 |
| AAGGTGGC | -0.0647 |
| CTATGAAG | -0.0908 |

| Sequence | PBM E-score |
| --- | --- |
| ATACGTTC | -0.109 |
| CAAATCGA | -0.291 |
| GGTGCTTA | -0.0954 |
| ACTCTATC | 0.00027 |
| GACGCCGC | 0.129 |
| ACCCGGCA | 0.226 |
| CAACAAAG | -0.162 |
| CCGCAATA | 0.25 |
| ACAGTACG | 0.0244 |
| GATACGAA | 0.0104 |
| AACTCCTA | -0.0287 |
| AGATATTG | 0.0929 |
| GAGGACTC | -0.255 |
| CCGTTTGC | 0.146 |
| CAAGGCAC | -0.215 |
| GTAGTTCA | -0.0229 |
| CCCCGGGC | 0.36 |
| CTGTGGAC | -0.251 |
| TATAAGCA | -0.149 |
